From ChEMBL document CHEMBL4888484, “Replenishing the malaria drug discovery pipeline: Screening and hit evaluation of the MMV Hit Generation Library 1 (HGL1) against asexual blood stage Plasmodium falciparum ,using a nano luciferase reporter read-out” (2022)
In all, about 150,000 compounds went through this assay and about 540 (0.36%) showed an effect of 50% or more. The list shows a part of the results.

These compounds were tested on Plasmodium falciparum (assay: Primary screen in NF54 nanoGlo assay, in single point, at 2uM, 72h; a lower Z score goes with more inhibition). Settings: timepoint 72 hour.
Format: functional, Erythrocyte

SMILES	% Inhibition [%]	Z score
Cc1ccc2[nH]cc(-c3ncccc3C(=O)N3CCCC3)c2c1	-1	0.09
C[C@H](NC(=O)Cn1cnc(C#N)n1)c1ccco1	9	-0.83
O=C1NC[C@@H](C2CCCCCC2)C(=O)N1Cc1cnn(CCF)c1	-11	2.02
O=C(c1cc2nc(-c3ccc4c(c3)OCO4)cc(C(F)(F)F)n2n1)N1CCN(c2ccccc2Cl)CC1	-7	0.76
NC(=O)c1cncc(N2CC[C@@]3(CCCN(CCc4ccccc4)C3)C2)n1	-6	0.84
COc1ccc(F)c(CN2CCC[C@@]3(CCN(C(=O)C4CCCC4)C3)C2)c1	-2	0.2
COc1ccc(-c2cc(C(F)F)nc(N3CCC(C(=O)O)CC3)n2)cc1OC	-49	5.71
O=C(Nc1ccccc1Cc1ccccc1)C1=NN(c2ccccc2)C(=O)CC1	2	-0.24
CN1CCN(C)[C@@H](CC(=O)N(C)Cc2nc3ccccc3o2)C1	-12	1.27
CC[C@@H](CO)N(Cc1ccc(C)s1)C(=O)c1ccnn1C(F)F	-1	0.13
CCN(CC(=O)NC)C(=O)CN(C)S(=O)(=O)c1ccc(C#N)cc1	4	-0.61
Cc1ccccc1-c1cccc(C(=O)N2CCC3(CCC(=O)N(C)C3)CC2)c1	-9	1.72
O=C(NCC12CCCCC1C2)C1CCc2nncn2CC1 (configuration not stated)	-5	0.49
O=C(c1ccnn1CC(F)(F)F)N1CCc2ncccc21	-7	1.4
Cc1cccc(CNC(=O)NCc2cc[nH]n2)c1Br	27	-3.01
COC(=O)C[C@@H]1Oc2ccccc2N(Cc2cncs2)C1=O	-11	1.32
Cc1ccncc1CC(=O)N1CCC[C@H](Nc2cccc(Br)c2)C1	-12	1.67
COCc1noc(CNC(=O)Nc2ccnn2C[C@@H]2CC=CCC2)n1	-3	0.4
CS(=O)(=O)NCCc1ccsc1	-9	1.21
COc1cc(-c2nc(CN(C)[C@@H](C)c3ccon3)c(C)o2)ccc1F	3	-0.65
CC(=O)c1cc(C(=O)[C@H](C#N)c2ccccn2)n(C)c1	-7	1.01

SMILES	% Inhibition [%]	Z score
O=C(COc1ccccc1)Nc1nnc([C@@H]2CCCO2)o1	0	-0.05
COc1cccc(-c2nccn2[C@@H](C)Cc2cc(C)n[nH]2)c1OC	6	-0.77
O=C(CCCN1CCC2(CC1)c1ccccc1C[C@@H]2O)c1ccc(F)cc1	-5	0.88
COC(=O)[C@@H](C)CS(=O)(=O)Nc1cnoc1-c1ccccc1	0	0.03
O=C(c1ccco1)N1CC[C@H](S(=O)(=O)c2ccccc2)C1	-14	2.37
CCn1nc(C)cc1S(=O)(=O)N1CC[C@]23C(=O)N(CC(=O)NCCCOc4cccc(c4)[C@H]12)c1ccccc13	-7	1.31
Cc1ccc(NC(=O)CN(C)C2CCCCCC2)c(Br)c1	0	-0.05
O=C(NCc1ccc(F)cc1)C1C2CCC(C2)N1S(=O)(=O)c1ccc2c(c1)OCCO2 (configuration not stated)	-5	0.87
CCO[C@H]1CCCN(S(=O)(=O)c2ccc3c(c2)CCC(=O)N3)C1	-1	0.22
O=C(c1cccs1)N1CCCn2cc(-c3ccccc3F)nc21	-10	1.79
C#CCC(NS(=O)(=O)c1ccc(OC)c(C2(C)NC(=O)NC2=O)c1)c1ccccc1 (configuration not stated)	11	-1.01
O=C(c1ccccn1)N1CC(N2C(=O)COC2=O)C1	23	-2.59
CNc1ncccc1CN(C)CCOc1cc(C)ccc1C	-5	0.71
COCC(C)S(=O)(=O)N1CCOC(C2CCC2)C1 (configuration not stated)	12	-1.46
CC(C)=CC1C(C(=O)N2CCC(CN(C)C(C)C)CC2)C1(C)C (configuration not stated)	-17	1.49
C[C@H]1CN(C(=O)C2(C#N)CCC2)CCN1C(=O)C1(C#N)CCC1	-10	1.6
C[C@H]1CCCN(C(=O)CS(=O)(=O)c2cccc(Cl)c2)C1	-4	0.8
Cc1cncnc1C1CCN(C(=O)c2ccc(C#N)nc2)CC1	-20	2.31
OCCn1nc(Cc2cccc(Cl)c2)nc1CN1CCCCCC1	-8	1.08
Cc1ccc(C)c([C@@H]2CC(=O)Nc3nc(N4CCN(CCO)CC4)nc(O)c32)c1	-7	1.12
